The whole screen tested about 150,000 compounds, of which about 540 (0.36%) showed an effect of 50% or more. The list shows a part of the results.

One may read the % Inhibition as the relative decrease from the control value, in per cent.

The assay has as its system Plasmodium falciparum. Briefly: Primary screen in NF54 nanoGlo assay, in single point, at 2uM, 72h; a lower Z score goes with more inhibition. Conditions: timepoint 72 hour. The assay is classed as functional, Erythrocyte.
With `Cc1nc(C#N)c(NCCc2nc(-c3ccccc3)no2)o1`, the “% Inhibition” value worked out at 1% and the Z score is listed as -0.11.

For `O=C(COC(=O)[C@@H](O)C1CCOCC1)NCCOc1ccccc1`, the “% Inhibition” value came to 10% and the Z score is -1.84.

As for `O=C(Nc1nnc2ccccn12)c1cc2c(s1)CCC2`, the “% Inhibition” value is listed as -22% and the Z score is reported as 2.2.

As to `COc1cc(-c2ccnc3c2ccn3C)nc(N)n1`, the “% Inhibition” value is given as 0% and the Z score is on record as -0.07.

Take `Cn1nc(-c2ccccc2)c(CN(CC2CC2)C(=O)c2ccco2)c1Oc1ccc(Cl)cc1`: the “% Inhibition” value is 12% and the Z score was -1.58.

Regarding `Cc1cc2c(cc1S(=O)(=O)N1CCC[C@H](C(=O)Nc3cccc4c3CCCC4)C1)OCC(=O)N2`, the “% Inhibition” value was -5% and the Z score amounted to 0.64.

Take `CCc1ccc([C@@H]2CNCCN2S(=O)(=O)c2cnc3onc(CC)c3c2)cc1`: the “% Inhibition” value is 3% and the Z score is on record as -0.46.

Consider `COCCOc1nc(-c2cccc(OC)c2)n(-c2cccc(NC(=O)c3cccc(OC)c3)c2)n1`, for which the “% Inhibition” value is listed as -12% and the Z score is 1.24.

Regarding `CCN(CC)CCC[C@H](C)NC(=O)c1cc(C)c2c(-c3ccccc3)nn(-c3cccc(F)c3)c2n1`, the “% Inhibition” value was -14% and the Z score is 1.27.

On to `O=S(=O)(Nc1ccc(O)cc1)c1cc(-c2nnc(-c3ccccc3)o2)ccc1F`, for which the “% Inhibition” value is -3% and the Z score came to 0.55.

Regarding `CN(c1cccc(NC(=O)c2ccc(F)cc2)c1)S(C)(=O)=O`, the “% Inhibition” value is 0% and the Z score was 0.

As to `COc1ccc(CCNC(=O)c2cccc(NS(=O)(=O)c3ccc(F)c(Cl)c3)c2)cc1OC`, the “% Inhibition” value is -7% and the Z score was found to be 1.37.

With `c1cc(C2CCCC2)nc(N2CCC3(CCO3)CC2)n1`, the “% Inhibition” value came to 1% and the Z score is -0.13.

Consider `O=C([C@H]1CCc2nnnn2CC1)N(CCc1ccccc1)C1CC1`, for which the “% Inhibition” value is given as -14% and the Z score was 1.54.

As for `COCCN1C[C@]2(CCCN(C(=O)c3cn(C)cn3)C2)CCC1=O`, the “% Inhibition” value turned out to be 4% and the Z score was -0.77.

For the compound `CC(=O)c1nc2cc(F)c(N3CCOCC3)cc2nc1C`, the “% Inhibition” value is reported as 32% and the Z score is given as -4.07.

Regarding `CCOCc1nnc2n1CCN(C(=O)OC(C)(C)C)C(C)(C)C2`, the “% Inhibition” value is on record as 1% and the Z score is -0.18.

On to `C[C@@]1(C(=O)NCCc2nc3ccccc3c(=O)[nH]2)CCCCO1`, for which the “% Inhibition” value is -11% and the Z score is 2.11.

As for `Cc1nc2ncnn2c(N2CC[C@]3(CCOC3)C2)c1C`, the “% Inhibition” value is listed as -12% and the Z score is on record as 2.15.

`O=C(NCCc1cccs1)NC1CCC2(CCOCC2)CC1`: the “% Inhibition” value is on record as -11% and the Z score was 1.05.

For the compound `Cc1nn(C)c(C)c1CCCNC(=O)c1cccc(O)c1C`, the “% Inhibition” value is recorded as -1% and the Z score is on record as 0.14.

Consider `COc1ccc(-c2nc3c([nH]2)CCN(C(=O)[C@@H](C)CN2CCCC2)C3)cc1`, for which the “% Inhibition” value is -10% and the Z score was determined as 1.83.

In the case of `COc1cccc(CNC(=O)Cn2cc(-c3ccccc3)c3ncnc(N4CCOCC4)c32)c1`, the “% Inhibition” value was -7% and the Z score was 1.01.

For the origin of these results see ChEMBL document CHEMBL4888484, “Replenishing the malaria drug discovery pipeline: Screening and hit evaluation of the MMV Hit Generation Library 1 (HGL1) against asexual blood stage Plasmodium falciparum ,using a nano luciferase reporter read-out” (2022).
